Experimental data: paper PMC12040169 (PLOS Biology, 2025)
The other results are listed elsewhere or left out.

What follows are molecules tested on T1, C. trachomatis L2/434/Bu expressing GFP (CTL2-GFP). Conditions: total inclusion area; 28.5 h, 10 µM; inhibitor.
T1 construct: L2/434/Bu GFP intracellular growth in HeLa cells
Design: species or system HeLa; C. trachomatis total inclusion area by high-content imaging, normalised to DMSO
Procedure, shortened: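 Host cell viability was gauged from Hoechst-stained nuclei counts, while chlamydial growth was taken from total inclusion area and inclusion number per well. Cells were fixed and imaged by high-content microscopy once bulk GFP and resorufin fluorescence had been measured.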

Compound	% of control remaining
N/C(=N\OC(=O)c1cc(-c2ccccc2)nc2ccccc12)c1cccnc1 [CBK265106]	136.031
CC(C)(C)OC(=O)N1CCC(Oc2nccnc2Cl)CC1 [CBK067386]	107.41
CCSc1nnnn1-c1cccc(NC(C)=O)c1 [CBK305511]	31.8278
O=C(c1ccncc1)N1CCCCC1c1nc2ccccc2[nH]1 (centres unmarked) [CBK281641]	108.235
COc1ccc(S(=O)(=O)N2CCSC2)cc1C [CBK097882]	93.2856
COC(=O)[C@H]1CCc2ccccc2N1C(C)=O [CBK284256]	90.2395
CCN(CC)C(=O)/C=C/c1ccc(C(C)C)cc1 [CBK149636]	94.2534
O=C(c1ccccc1Cl)c1cc(Cl)ccc1-n1ccnc1 [CBK005151]	80.1634
Cc1ccc(COc2ccc(/C=N/NC(=O)CN3CCCCC3)cc2)cc1 [CBK262227]	78.9905
O=C(NCCc1nc2ccccc2[nH]1)Nc1ccccc1 [CBK261803]	92.2153
CC(Oc1ccc(Br)cc1Cl)C(=O)NCCCN1CCCC1=O (centres unmarked) [CBK268138]	76.5397
N#CC1=C(SCc2ccccc2)SC(c2ccc(O)c(O)c2)NC1=O (centres unmarked) [CBK293972]	68.095
Cc1cc2c(cc3c(=O)n(CCN4CCCC4)nc(C)n32)s1 [CBK284126]	75.9447
COc1cc2cc(C(=O)N3CCN(Cc4ccc5c(c4)OCO5)CC3)c(=O)oc2cc1OC [CBK074790]	84.0231
CN(C)CC(C)(C)CNC1CCN(C)CC1 [CBK261926]	105.594
Cc1nc(CCCn2cnc3cnccc3c2=O)sc1C [CBK306610]	54.2768
O=C(NCCc1ccccc1)Nc1cc2cccnc2c(Br)n1 [CBK063283]	54.2928
O=S(=O)(c1cccc2nsnc12)N1CCCN(Cc2ccsc2)CC1 [CBK038570]	95.2673
Fc1ccc(OCCNCCC2NCCc3c2[nH]c2ccccc32)cc1 (centres unmarked) [CBK066970]	95.8102
COc1ccc(-n2ncc(-c3ccc(C(F)(F)F)cc3)n2)cc1 [CBK112688]	107.798
Cc1cc(=O)n2c(-c3ccc(NS(=O)(=O)c4cccnc4)cc3)csc2n1 [CBK287837]	113.107
Cc1ccc(C(C)C)c(OCC(=O)Nc2ccc(F)c([N+](=O)[O-])c2)c1 [CBK263771]	66.9523
O=C(NCCCN1CCOCC1)c1ccc(/C=N/O)nc1 [CBK264468]	113.231
Cn1cc(-c2nc(C3COCCN3Cc3ccc(F)cc3)no2)cn1 (centres unmarked) [CBK305391]	64.9717
NC(=O)c1ccc(-c2cncc(N3CCN(CCO)CC3)n2)cc1 [CBK065392]	98.5828
O=C(NCCn1cccn1)c1ncoc1-c1ccc(F)cc1 [CBK282355]	107.031
CCN1CC2(CCNCC2)c2ccccc21 [CBK116520]	112.544

Compound	% of control remaining
CN(C)CC(O)c1cc2n(n1)CCCN(CC(=O)NCc1cccs1)C2 (centres unmarked) [CBK306738]	102.16
CCc1nn(CC(=O)N(C)C)c(=O)c2cc3oc(C)cc3n12 [CBK283576]	115.374
CNC(=O)Nc1ccccc1NC(=O)NC [CBK261401]	105.116
O=C1NC(=O)C(CC(=O)N2CCC3(CC2)CC(=O)c2cc(Cl)ccc2O3)N1 (centres unmarked) [CBK156485]	82.1597
C=CCn1c(Cc2csc(NC(=O)c3cc(C)cc(C)c3)n2)n[nH]c1=S [CBK295358]	90.3807
CO[C@H]1CC[C@H](C(=O)NC(Cc2ccsc2)c2cccnc2)CC1 (some centres unmarked) [CBK285114]	93.3056
Nc1nnc(SCC(=O)NCc2ccc3c(c2)OCO3)s1 [CBK267853]	120.742
O=C(CCn1cnc2ccccc2c1=O)Nc1ccc(Cl)c(Cl)c1 [CBK266738]	94.5923
O=C1c2ccccc2C(=O)N1CCCc1nn2c(-c3cccnc3)nnc2s1 [CBK270140]	95.1879
CC(C)(C)OC(=O)NCc1ccc(-c2nnc(CC(=O)O)o2)cc1 [CBK169899D]	110.287
Cc1ccc(C2SCC(C(=O)O)N2C(=O)c2cccc(Cl)c2)cc1 (centres unmarked) [CBK286931]	132.012
CC(=O)NCCOc1nccnc1OCc1ccc(Cl)c(Cl)c1 [CBK161582]	88.8492
COc1ccc(CNc2cncc(-c3ccc(C(C)C)cc3)n2)cc1 [CBK065514]	108.304
CN(C)CCN(Cc1ccccc1)C(=O)NCc1ccc(Cl)cc1 [CBK155106]	85.5992
CCOC(=O)c1[nH]c2ccccc2c1NC(=O)[C@@H]1CCCN1C [CBK160171T]	82.1032
Nc1nnc(Sc2ccc([N+](=O)[O-])c3nonc23)s1 [CBK266712]	52.7351
O=C(NCCc1c[nH]cn1)NC1CCCCC1 [CBK269975]	76.606
N#Cc1c(CN2CCCC(c3noc(C4CC4)n3)C2)cn2ccccc12 (centres unmarked) [CBK305332]	23.1197
COc1ccccc1C(=O)NCC(=O)N/N=C/c1ccc(N(C)C)cc1 [CBK261989]	88.7126
CN(C)c1nc(NCc2ccccc2)nc(SCC(=O)Nc2ccccc2)n1 [CBK268810]	88.2622
COc1cc(OC)nc(CN2C(=O)C3(CC(=O)N(C)C3=O)c3cc(F)ccc32)n1 (centres unmarked) [CBK075475]	94.3664
Cc1nccn1CCCNC(=O)c1ccc(N2CCCC2)cc1 [CBK281589]	81.5477
Cc1ccc(OCCNC(=O)C(C)Cn2cccn2)cc1 (centres unmarked) [CBK283252]	82.1722
Cc1cc(C)c2c(c1)C1(C(=O)N2)C(C#N)=C(N)Oc2[nH]nc(-c3ccccc3)c21 (centres unmarked) [CBK267367]	111.724
CC(C)(C)c1ccc([S+]([O-])c2cncc(N3CCNCC3)n2)cc1 (centres unmarked) [CBK051434C]	82.7651
CCOC(=O)c1ccc(N2C(=O)CC(N3CCN(c4cccc(OC)c4)CC3)C2=O)cc1 (centres unmarked) [CBK265396]	110.935
